This passage reports binding signal results from paper PMC12136788.

To fix the notation:
T1: UNK ZnF1-6 (called full-length) (human, UniProt Q9C0B0 30-357)
T1 sequence: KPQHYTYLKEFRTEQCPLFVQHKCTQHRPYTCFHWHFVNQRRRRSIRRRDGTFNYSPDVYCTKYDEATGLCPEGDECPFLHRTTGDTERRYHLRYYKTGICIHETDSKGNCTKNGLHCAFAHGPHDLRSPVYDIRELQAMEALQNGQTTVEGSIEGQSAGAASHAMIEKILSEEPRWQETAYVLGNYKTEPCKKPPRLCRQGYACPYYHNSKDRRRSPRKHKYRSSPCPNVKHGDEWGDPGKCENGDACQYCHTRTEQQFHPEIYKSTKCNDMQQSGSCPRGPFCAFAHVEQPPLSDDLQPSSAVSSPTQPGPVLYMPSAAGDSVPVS

B1: ENSG00000070961:be:win_5501|3pUTR|ENSG00000070961|bound_else_gene|NA|bound_elsewhere_windowed (ssRNA)
RNA: GGGAGUUCUACAGUCCGACGAUCCAGUAAUCCUCUGCAGGUCUUAGAAACACAUUGGCUCUGUCAGCAUUUGUAAUUGUACAUUUAUUCAUCAGGUAUUUAUAGUGAAUCAUACUGUAAAAAAGAGGUAGCAUGAUAUGCUGGCAACAGAGGAUUGAGCAUCA
B2: chr11:113276125:113276317:+|3pUTR|ENSG00000149294|msi1|FALSE|unique (ssRNA)
RNA: GGGAGUUCUACAGUCCGACGAUCGUCCGUGUAAAAUAGCUGCCUUUUAUUUUUUAAGGUAACAAAUACCACCUAGAGGUAGGUAGGAUCAUCCCACGCUUGCUUUAGCACAGGACAACUUUACAAAACAUGAUUGUUUACAGCCAACAGAGGAUUGAGCAUCA
B3: chr2:27376893:27376994:+|3pUTR|ENSG00000115234|msi1|FALSE|unique (ssRNA)
RNA: GGGAGUUCUACAGUCCGACGAUCGGGCUGGCUGCACAGAGGAUUGCCCCUUCUCUUUUCAGAGCUGGCCCUCGAUGCCAAAUUAGCAUUUAGUAUUUUGCACAAAGUCUAAGGGACCAUGGCUGCCUGCCUUGGGGAGGAACCCAACAGAGGAUUGAGCAUCA
B4: chr6:52501983:52502084:-|3pUTR|ENSG00000065308|msi1|total|mutant (ssRNA)
RNA: GGGAGUUCUACAGUCCGACGAUCGGCCGCCCUUGUUGAGUGUUCUUUGGAAUUGUCGUUUUUUGAGCACAACUACAGCAUUUCCGACUGCAUGAAACCAUGACUGACUGAGAGUCACUCUCUGGGCCGAUGACCGGCGCCUUUCAACAGAGGAUUGAGCAUCA
B5: chr12:49796586:49796721:-|CDS|ENSG00000167566|msi1|FALSE|unique (ssRNA)
RNA: GGGAGUUCUACAGUCCGACGAUCGAGGCCCACAGGCCAGGCUUCGGUGCUACCUCAGAGGGCCAGGGGCCCCUCCCCUUCCUUAGCAUGUUCAUGGGUGCUGGGGAUGCCCCACUGGGCUCUCGGCCUGGCCACCCCCAUUCCCAACAGAGGAUUGAGCAUCA
B6: chr2:121605696:121605828:-|CDS|ENSG00000074054|unk|FALSE|unique (ssRNA)
RNA: GGGAGUUCUACAGUCCGACGAUCGAUAGACUAUUUCUCAGACAAACAGAAGUCUGCUGACCUUGAGCAUGACCAGACCAUGUUAGAUAAACUUGUGGAUGGACUUGCUACCUCUUGGGUGAACUCUAGCAAUUACAAGGUAAGCAACAGAGGAUUGAGCAUCA
B7: ENSG00000124766:be:win_3801|3pUTR|ENSG00000124766|bound_else_gene|NA|bound_elsewhere_windowed (ssRNA)
RNA: GGGAGUUCUACAGUCCGACGAUCUGUUUAAUAUAACAUGACAGGCACUAGGACGUCUGCCUUUUUAAGGCAGUUCCGUUAAGGGUUUUUGUUUUUAAACUUUUUUUUGCCAUCCAUCCUGUGCAAUAUGCCGUGUAGAAUAUUCAACAGAGGAUUGAGCAUCA
B8: chr17:18327447:18327548:+|3pUTR|ENSG00000176994|msi1|FALSE|unique (ssRNA)
RNA: GGGAGUUCUACAGUCCGACGAUCGUCAACUCACAGAUUCUGCAGCAGCUGCUCCACCCACAAUAAAGCAAACGCCGACAGGCUAGACCCCAGAUUGCAGGGGCUGCCACCUACAAGGUGGGACCACAGGCUGCCUCACCGGGACAACAGAGGAUUGAGCAUCA
B9: chr5:10264816:10264917:+|3pUTR|ENSG00000150753|msi1_unk|total|mutant (ssRNA)
RNA: GGGAGUUCUACAGUCCGACGAUCAAUGGAUGUCUCGUGAUGCAUCUACAGUUAUUUAUUGUUACAUCCUUUUCCAGACACUGCCGAUGCUAUAAUAAAAACCGCUGUUUGGUAACCACCGUUUCACUUGUUCAAAGCUGUGUACAACAGAGGAUUGAGCAUCA
B10: ENSG00000070961:be:win_1001|CDS|ENSG00000070961|bound_else_gene|NA|bound_elsewhere_windowed (ssRNA)
RNA: GGGAGUUCUACAGUCCGACGAUCAGCCAUUGAAGAGUGAAGAAGGUGGAGAUGGUGAUGAAAAAGAUAAAAAGAAAGCAAAUUUGCCAAAAAAGGAAAAAUCUGUUUUACAAGGGAAACUUACAAAACUGGCUGUUCAGAUUGCAACAGAGGAUUGAGCAUCA
B11: ENSG00000137504:stop:overlap|stop_codon|ENSG00000137504|stop_codon|NA|stop_codon (ssRNA)
RNA: GGGAGUUCUACAGUCCGACGAUCAGGUGUCGGUGGAGUUCUGCUCGGCGUGCGCCCGGAAGGCGUCGUCUUCUCUUAAAAUGUAGGGUCAAGUAAUCUGCUCUUUAUCCGCGUUUACCCCUUUCAACUCCCUUACACCAUGUCCAACAGAGGAUUGAGCAUCA
B12: chr20:56404979:56405080:+|3pUTR|ENSG00000101138|unk|total|mutant (ssRNA)
RNA: GGGAGUUCUACAGUCCGACGAUCCCGCGCCCAGCCUUCCUGAAGCUUUUCCGAACAUGACAGUACUUCUCUGGAUUCAGCACCCGCAGAGUCAGAGAACUCUGAACUCCCCUUGUACAAACAUAAACUUUGCUUUAUAUUUAUCAACAGAGGAUUGAGCAUCA
B13: chr10:62092816:62092917:+|CDS|ENSG00000150347|msi1|FALSE|unique (ssRNA)
RNA: GGGAGUUCUACAGUCCGACGAUCUUUUACAUCACCGACAAAUUCUCAGCAGCUGUACAGACACUUGGCUGCGGCUACACCUGUAGGAAGUUCAUAUGGGGACCUUUUGCAUAACAGCAUUUACCCUUUAGCUGCUAUAAAUCCCAACAGAGGAUUGAGCAUCA
B14: chr3:157259741:157261133:-|three_prime_utr|ENSG00000197415|control|control|control (ssRNA)
RNA: GGGAGUUCUACAGUCCGACGAUCACUAAAUACCAAUGGAAUUGUUGUCCUUUAAGAAGAAGGGCCUAAAAUGGCAGGAUUCUUAGUAAAUGUCAUACUCUAACAGCUUUAGUAUUGACUUCAGAAUAUAUCUGAUGCCCACAACAACAGAGGAUUGAGCAUCA
B15: chr3:25618756:25618858:-|CDS|ENSG00000077097|unk|total|mutant (ssRNA)
RNA: GGGAGUUCUACAGUCCGACGAUCUAUAUAAGUUAAAAUACCAGUACAGAUCUAUAUGAUCUGCAAAGUAUAUGUGUUUUGCUCCGGUACUUUUUGAUCAUAUGGGAUGUCUGAAGAAAUAUGAAACUGUGCAAGACAUUCUGACAACAGAGGAUUGAGCAUCA
B16: chr7:44573567:44573675:-|CDS|ENSG00000136271|unk|total|mutant (ssRNA)
RNA: GGGAGUUCUACAGUCCGACGAUCCGCACGGGCUCCGGGAAGACGGCCGCUUAUGCUAUUCCGAUGCUGCAGCUGUUGCUCCACCGGAAGGCGGUGGGUAACGAGAGAGCUGAGGGGAGGAAGGAGGCAAGCUCCAAAAGCCUGCAACAGAGGAUUGAGCAUCA
B17: chr1:204554719:204554820:+|3pUTR|ENSG00000198625|unk|total|mutant (ssRNA)
RNA: GGGAGUUCUACAGUCCGACGAUCAAGUACUUUCUUUUGACAGAAAUUUUCAUUCUGCUUGCCAUUGCUAUAUUCUCCCUUUACCGGAGCCAUUGGAUUUCUUUCCUUUUGUGGGAAAUGUCCCAUCCGCAUUUUCAGAUCUUUCAACAGAGGAUUGAGCAUCA
B18: chrX:149582234:149583179:-|CDS|ENSG00000267978|control|control|control (ssRNA)
RNA: GGGAGUUCUACAGUCCGACGAUCUCCUACAUCCUUGUCACUGCUCUUGGCCUCUCGUGCGAUAGCAUGCUGGGUGAUGGUCAUAGCAUGCCCAAGGCCGCCCUCCUGAUCAUUGUCCUGGGUGUGAUCCUAACCAAAGACAACCAACAGAGGAUUGAGCAUCA
B19: ENSG00000070961:be:win_2351|CDS|ENSG00000070961|bound_else_gene|NA|bound_elsewhere_windowed (ssRNA)
RNA: GGGAGUUCUACAGUCCGACGAUCCUGUCUCAGACCAACGCCAGGUUGUAGCUGUAACUGGUGAUGGUACAAAUGAUGGCCCAGCACUAAAGAAAGCAGAUGUUGGAUUUGCAAUGGGUAUUGCUGGAACUGAUGUAGCUAAAGCAACAGAGGAUUGAGCAUCA
B20: ENSG00000136451:be:win_3501|3pUTR|ENSG00000136451|bound_else_gene|NA|bound_elsewhere_windowed (ssRNA)
RNA: GGGAGUUCUACAGUCCGACGAUCUCCACAGUACAAAAAUGGUUUGUUUUUAAUAUGUAGAGCAUUAUGUGUGGACUACUGGAAGGACUCGUGUAGGGAAAGCCCAAGAAUGACCUUGCUGAGGCCUGGAUUGGGAGGCACAGUCAACAGAGGAUUGAGCAUCA
B21: chr14:92131016:92131127:+|CDS|ENSG00000165934|unk|total|mutant (ssRNA)
RNA: GGGAGUUCUACAGUCCGACGAUCACCCUUUCUGGGGUCCAAGAAGAAUCUGCCCUUUGCUAUCUUCUCCAAGUUGAUGAGUUCCGAUUUUUAUUGGACUGUGGCUGGGAUGAGCACUUUUCUAUGGAUAUUAUUGAUUCCCUGCAACAGAGGAUUGAGCAUCA
B22: chr3:186556460:186556561:-|CDS|ENSG00000113838|unk|total|mutant (ssRNA)
RNA: GGGAGUUCUACAGUCCGACGAUCAGAGCCAGGAAGAUCUAUCCACUUCAUGAACUUGCACUGUGGCAACCACUGCAUGCAGACCGUGGCUUCUCAAAGAUCUCUAAGACUUUCUCUUUCUACAAACUGGAAACCUGGUUGAGGCAACAGAGGAUUGAGCAUCA

The other results are listed elsewhere or left out.

The test deals with T1, UNK ZnF1-6 (called full-length). Nature of the test: nsRBNS (natural sequence RNA bind-n-seq); RBNS binding buffer (assumed for nsRBNS): 25 mM Tris pH 7.5, 150 mM KCl, 3 mM MgCl2, 0.01% Triton X-100, 500 ug/ml BSA, 20 U/ml SUPERase-In, 4 C; UNK is unkempt and MSI1 is Musashi-1; names of the RNAs are library labels; protein concentration not given here; high values mean tight binding.
On to B1, for which the binding signal came to 0.543 enrichment R.

B2 came in with a binding signal of 0.606 enrichment R.

The molecule B3 yielded a binding signal of 1.7 enrichment R.

Molecule B4 returned a binding signal of 0.527 enrichment R.

Consider B5, for which the binding signal is 0.706 enrichment R.

B6 yielded a binding signal of 0.726 enrichment R.

B7 gave a binding signal of 0.544 enrichment R.

Turning to B8, the binding signal was 0.87 enrichment R.

B9 yielded a binding signal of 0.394 enrichment R.

For B10, the binding signal is 0.569 enrichment R.

For B11, the binding signal was 0.67 enrichment R.

On to B12, for which the binding signal is 0.644 enrichment R.

With B13, the binding signal turned out to be 0.658 enrichment R.

Molecule B14 registered a binding signal of 0.511 enrichment R.

B15: the binding signal was found to be 0.35 enrichment R.

B16 registered a binding signal of 0.755 enrichment R.

B17 yielded a binding signal of 0.352 enrichment R.

On to B18, for which the binding signal stood at 0.664 enrichment R.

The molecule B19 registered a binding signal of 0.509 enrichment R.

B20 returned a binding signal of 0.591 enrichment R.

Consider B21, for which the binding signal turned out to be 0.429 enrichment R.

B22 displayed a binding signal of 0.525 enrichment R.
